± gives the standard deviation of the averaged measurements. Growth of baker's yeast expressing single-residue variants of Pneumocystis jirovecii dihydrofolate reductase in 8.8 or 44 µM methotrexate (about 75% and 90% inhibition of the wild type). Selection coefficient per generation; 0 = like wild type, above 0 = less sensitive, below 0 = more sensitive or loss of function. No active / inactive call per row; the paper calls resistant above 0.220 (8.8 µM) or 0.243 (44 µM) together with a significance test. At 44 µM about 15% of codons end with one read or none, so the lowest values are floors (replicate rank correlation 0.74; 0.94 at 8.8 µM).
B1: UniProt A0EPZ9; numbered along this chain (parent)
chain: MDWQKSLTLIVALTLSRGIGLKNDLPWKLKSDMMFFSRVTSGLLVTRSTGQMNVVLMGRKTWESLPAHSRPLKNRINVVISRQEVLDLGGGAYHARSLDDALALLSQIYDSTSKIQLNRVFVIGGGELCKAAMEHSRLNRIIATVIHNEVDCDVFFPIDFRSSQSCLPWRKQDHSVLEAWVGSKVPQGKINENGFIYEFEMWIRDI

Variants of: B1
Assay: selection coefficient against synonymous wild-type codons (log2 per generation); higher = faster growth than wild type
Conditions: with Saccharomyces cerevisiae carrying the variant on a plasmid
Description: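 Pooled growth of yeast carrying single-residue variants of P. jirovecii dihydrofolate reductase (own DFR1 gene intact), two passages at 30 °C, three cultures, sequenced before and after. Codons with under 15 starting reads are left out; codons of one change are averaged.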

Variant | selection coefficient against synonymous wild-type codons (log2) (methotrexate 8.8 µM) | selection coefficient against synonymous wild-type codons (log2) (methotrexate 44 µM)
W62C | -0.544 ± 0.16 | -0.139 ± 0.14
W62I | -0.501 ± 0.059 | -0.254 ± 0.034
W62H | -0.497 ± 0.075 | -0.317 ± 0.073
W62G | -0.509 ± 0.063 | -0.367 ± 0.028
W62A | -0.554 ± 0.059 | -0.306 ± 0.06
W62N | -0.522 ± 0.059 | -0.189 ± 0.062
W62K | -0.561 ± 0.061 | -0.313 ± 0.056
W62P | -0.465 ± 0.096 | -0.217 ± 0.089
W62L | -0.475 ± 0.13 | -0.236 ± 0.092
W62V | -0.483 ± 0.1 | -0.248 ± 0.081
W62S | -0.498 ± 0.052 | -0.25 ± 0.057
W62M | -0.607 ± 0.032 | -0.276 ± 0.15
W62Y | -0.151 ± 0.02 | -0.257 ± 0.081
W62Q | -0.501 ± 0.18 | -0.296 ± 0.078
W62E | -0.574 ± 0.048 | -0.327 ± 0.035
W62F | -0.318 ± 0.08 | -0.211 ± 0.11
W62T | -0.488 ± 0.1 | -0.24 ± 0.095
W62D | -0.579 ± 0.028 | -0.332 ± 0.032
A67C | -0.247 ± 0.033 | -0.157 ± 0.12
L56P | -0.526 ± 0.079 | -0.299 ± 0.056

Variant | selection coefficient against synonymous wild-type codons (log2) (methotrexate 8.8 µM) | selection coefficient against synonymous wild-type codons (log2) (methotrexate 44 µM)
L56E | -0.562 ± 0.1 | -0.357 ± 0.052
L56G | -0.548 ± 0.066 | -0.292 ± 0.07
L56N | -0.577 ± 0.034 | -0.329 ± 0.034
L56F | -0.127 ± 0.024 | -0.156 ± 0.091
L56T | -0.583 ± 0.045 | -0.314 ± 0.051
L56K | -0.574 ± 0.042 | -0.217 ± 0.15
L56Y | -0.591 ± 0.032 | -0.343 ± 0.043
L56R | -0.532 ± 0.053 | -0.27 ± 0.089
L56M | -0.00461 ± 0.021 | -0.0528 ± 0.039
L56W | -0.509 ± 0.043 | -0.303 ± 0.037
L56V | -0.0375 ± 0.044 | -0.133 ± 0.18
L56H | -0.371 ± 0.038 | -0.123 ± 0.039
L56I | 0.131 ± 0.033 | 0.127 ± 0.095
L56A | -0.563 ± 0.14 | -0.264 ± 0.16
L56S | -0.497 ± 0.15 | -0.273 ± 0.13
L56C | -0.297 ± 0.052 | -0.196 ± 0.1
L56D | -0.612 ± 0.043 | -0.365 ± 0.057
L56Q | -0.52 ± 0.032 | -0.23 ± 0.073
S64A | -0.0843 ± 0.051 | -0.0568 ± 0.057
S64D | 0.00856 ± 0.065 | -0.0743 ± 0.14

Variant | selection coefficient against synonymous wild-type codons (log2) (methotrexate 8.8 µM) | selection coefficient against synonymous wild-type codons (log2) (methotrexate 44 µM)
S64K | -0.363 ± 0.1 | -0.323 ± 0.14
S64P | -0.407 ± 0.092 | -0.125 ± 0.1
S64Q | -0.479 ± 0.16 | -0.231 ± 0.16
S64F | -0.403 ± 0.14 | -0.197 ± 0.087
S64Y | -0.384 ± 0.1 | -0.238 ± 0.12
S64N | -0.323 ± 0.27 | -0.289 ± 0.024
S64W | -0.492 ± 0.089 | -0.371 ± 0.096
S64R | -0.426 ± 0.08 | -0.294 ± 0.13
S64E | -0.331 ± 0.12 | -0.32 ± 0.13
S64V | -0.499 ± 0.17 | -0.311 ± 0.045
S64L | -0.514 ± 0.1 | -0.319 ± 0.098
S64M | -0.363 ± 0.076 | -0.227 ± 0.034
S64I | -0.474 ± 0.073 | -0.268 ± 0.085
S64G | -0.143 ± 0.046 | -0.202 ± 0.12
S64T | -0.196 ± 0.075 | -0.14 ± 0.15
S64C | -0.327 ± 0.065 | -0.164 ± 0.23
S64H | -0.448 ± 0.19 | -0.241 ± 0.1
V54W | -0.482 ± 0.082 | -0.277 ± 0.038

Reference: the supplement of paper PMC11125491
